Measurements: the supplement of paper PMC3334620
Over roughly 33,000 sequences, “E-score (-0.5 to 0.5)” has its median near -0.035; the highest 2% begin near 0.35. Some of the results follow.

What follows are sequences tested against T1, Pdr3 (UniProt P33200) (assay: PBM E-score (8-mer binding enrichment) (E-score (-0.5 to 0.5)); higher = stronger / more preferred TF binding; most listed sequences are background and not binding sites). Details: protein concentration: 200 nM; construct: GST-full length.
T1 sequence: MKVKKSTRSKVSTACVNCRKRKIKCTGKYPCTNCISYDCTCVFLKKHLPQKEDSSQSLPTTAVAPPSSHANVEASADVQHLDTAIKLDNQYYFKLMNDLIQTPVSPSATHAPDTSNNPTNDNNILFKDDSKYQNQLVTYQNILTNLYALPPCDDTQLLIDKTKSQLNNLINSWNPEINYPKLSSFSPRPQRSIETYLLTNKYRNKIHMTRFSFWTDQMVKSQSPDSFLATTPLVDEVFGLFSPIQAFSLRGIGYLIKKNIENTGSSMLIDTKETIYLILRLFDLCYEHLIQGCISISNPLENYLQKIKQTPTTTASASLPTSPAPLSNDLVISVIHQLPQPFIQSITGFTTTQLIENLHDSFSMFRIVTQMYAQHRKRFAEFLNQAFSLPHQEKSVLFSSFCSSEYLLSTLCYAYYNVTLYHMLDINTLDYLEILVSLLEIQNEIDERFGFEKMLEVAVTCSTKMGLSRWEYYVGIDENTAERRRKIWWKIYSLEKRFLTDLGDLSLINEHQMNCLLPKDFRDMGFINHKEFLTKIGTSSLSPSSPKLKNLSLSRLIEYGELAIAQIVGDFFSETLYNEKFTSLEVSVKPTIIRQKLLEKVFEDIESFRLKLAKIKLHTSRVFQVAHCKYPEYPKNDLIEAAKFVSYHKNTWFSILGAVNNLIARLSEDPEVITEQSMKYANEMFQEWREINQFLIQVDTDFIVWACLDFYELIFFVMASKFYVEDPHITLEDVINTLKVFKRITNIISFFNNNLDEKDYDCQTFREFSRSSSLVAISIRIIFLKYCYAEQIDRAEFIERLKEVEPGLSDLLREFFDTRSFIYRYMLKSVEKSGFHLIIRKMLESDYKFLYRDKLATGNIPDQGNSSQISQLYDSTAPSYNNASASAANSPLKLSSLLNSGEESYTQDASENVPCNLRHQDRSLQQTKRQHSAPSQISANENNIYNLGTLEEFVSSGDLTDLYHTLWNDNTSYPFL
Procedure, shortened: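 Universal all-10-mer Agilent arrays, double-stranded by primer extension on fresh or once-stripped slides, were probed with about 100-200 nM GST-tagged yeast transcription factors made by PURExpress. Fluorescent anti-GST detected bound protein, and masliner normalised the scans. E-scores from the Universal PBM Analysis Suite were given to each ungapped eight-base word pooled with its reverse complement.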

| Sequence | PBM E-score |
| --- | --- |
| TGACTTAA | -0.204 |
| ACACAAGC | 0.0653 |
| AATTCGGG | 0.153 |
| AAAGCCAG | -0.163 |
| CTGAGGAA | -0.108 |
| CTGCTATC | 0.0994 |
| GGTCTTGA | -0.0774 |
| AGGGTTAA | -0.202 |
| ATAGTATC | 0.103 |
| AATGGACC | -0.0452 |
| AGCAAGTA | -0.149 |
| ACCTGATG | -0.126 |
| AAAACGCA | -0.0435 |
| ACATTTGC | -0.0484 |
| ACAGAATG | -0.122 |
| ACAACCCG | 0.223 |
| GGCCGCTA | 0.125 |
| ACGTGCAC | -0.115 |
| GCCTGAGC | -0.29 |
| ACTACGGG | 0.118 |
| GTGGCAAA | -0.111 |
| ATGGGGGG | -0.122 |

| Sequence | PBM E-score |
| --- | --- |
| CTCTCTAA | -0.327 |
| ATCTCCTA | -0.245 |
| CTGAGCCC | -0.114 |
| ACTACACC | -0.0598 |
| AGGTCTCC | -0.114 |
| CAATAGAA | -0.106 |
| CTTTCGGA | 0.335 |
| GAGCATTA | -0.0816 |
| AGGAACGC | -0.00648 |
| AAGAGGGT | -0.351 |
| AGTCAATC | -0.0616 |
| AGTGCCTA | -0.186 |
| ACTGCGAG | -0.0828 |
| AATTTGGG | -0.127 |
| ATCCCAAT | -0.121 |
| AGAGCGCA | -0.215 |
| AACTCGAC | 0.0587 |
| ACCCGATC | 0.0757 |
| AAGTGCAG | -0.224 |
| CACCTAGG | -0.161 |
| CTAGCATC | -0.172 |
| ACAACTGT | -0.167 |

| Sequence | PBM E-score |
| --- | --- |
| CGGGACGC | 0.292 |
| AAGAGCTC | -0.0105 |
| GCACGCGC | -0.0476 |
| ACGAGATC | 0.00781 |
| AGGCTTCG | -0.0303 |
| ACGCTCCG | 0.315 |
| GATCTTAA | -0.136 |
| ATGTATAG | -0.0329 |
| CACCGGCA | 0.232 |
| CTGCGTCA | -0.163 |
| AGTTCGTC | -0.0272 |
| ATTGCCTA | -0.262 |
| CGCGTCCC | 0.129 |
| ACTGGGCT | 0.0297 |
| AGTAATTG | 0.0226 |
| GTTAAGGA | -0.071 |
| CTTGCCTA | -0.34 |
| AGACTGAC | -0.192 |
| GCTGAAGC | 0.0189 |
| CTCTCTTC | -0.22 |
| AAGCTCAA | -0.186 |
| AACTTTAG | -0.225 |

| Sequence | PBM E-score |
| --- | --- |
| AATACACG | -0.14 |
| CGAGGCGA | 0.0621 |
| AGCCCTCC | -0.0658 |
| AGGCGGAC | 0.211 |
| CGACATGC | 0.0964 |
| AGTTACGA | -0.0164 |
| GACACGTC | 0.0237 |
| CTTCAAGA | -0.23 |
| GATATTAA | 0.247 |
| AGCGAGCG | 0.154 |
| GATCTTAC | -0.113 |
| AGAAGGCT | -0.304 |
| GGGAGTGA | 0.0692 |
| CCTGACCC | -0.0157 |
| CAGCGCTA | -0.0686 |
| TACGGTAA | 0.0846 |
| CTAACCAA | 0.0145 |
| CAGGGTAC | -0.293 |
| CAGCCGGC | 0.324 |
| AACCCGAT | 0.205 |
